Out of some 310,000 compounds screened, about 14,000 (4.5%) showed an effect of 50% or more. The effect is printed as a negative number. The list shows a part of the results.
The compounds below were run against human ether-à-go-go-related gene (hERG) potassium channel (human, UniProt Q12809) (assay: primary screen, population patch clamp on CHO cells stably expressing hERG).
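Also: peak tail current of the secondary pulse compared with the same well before compound.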

Chain of human ether-à-go-go-related gene (hERG) potassium channel (Q12809 whole entry, looked up): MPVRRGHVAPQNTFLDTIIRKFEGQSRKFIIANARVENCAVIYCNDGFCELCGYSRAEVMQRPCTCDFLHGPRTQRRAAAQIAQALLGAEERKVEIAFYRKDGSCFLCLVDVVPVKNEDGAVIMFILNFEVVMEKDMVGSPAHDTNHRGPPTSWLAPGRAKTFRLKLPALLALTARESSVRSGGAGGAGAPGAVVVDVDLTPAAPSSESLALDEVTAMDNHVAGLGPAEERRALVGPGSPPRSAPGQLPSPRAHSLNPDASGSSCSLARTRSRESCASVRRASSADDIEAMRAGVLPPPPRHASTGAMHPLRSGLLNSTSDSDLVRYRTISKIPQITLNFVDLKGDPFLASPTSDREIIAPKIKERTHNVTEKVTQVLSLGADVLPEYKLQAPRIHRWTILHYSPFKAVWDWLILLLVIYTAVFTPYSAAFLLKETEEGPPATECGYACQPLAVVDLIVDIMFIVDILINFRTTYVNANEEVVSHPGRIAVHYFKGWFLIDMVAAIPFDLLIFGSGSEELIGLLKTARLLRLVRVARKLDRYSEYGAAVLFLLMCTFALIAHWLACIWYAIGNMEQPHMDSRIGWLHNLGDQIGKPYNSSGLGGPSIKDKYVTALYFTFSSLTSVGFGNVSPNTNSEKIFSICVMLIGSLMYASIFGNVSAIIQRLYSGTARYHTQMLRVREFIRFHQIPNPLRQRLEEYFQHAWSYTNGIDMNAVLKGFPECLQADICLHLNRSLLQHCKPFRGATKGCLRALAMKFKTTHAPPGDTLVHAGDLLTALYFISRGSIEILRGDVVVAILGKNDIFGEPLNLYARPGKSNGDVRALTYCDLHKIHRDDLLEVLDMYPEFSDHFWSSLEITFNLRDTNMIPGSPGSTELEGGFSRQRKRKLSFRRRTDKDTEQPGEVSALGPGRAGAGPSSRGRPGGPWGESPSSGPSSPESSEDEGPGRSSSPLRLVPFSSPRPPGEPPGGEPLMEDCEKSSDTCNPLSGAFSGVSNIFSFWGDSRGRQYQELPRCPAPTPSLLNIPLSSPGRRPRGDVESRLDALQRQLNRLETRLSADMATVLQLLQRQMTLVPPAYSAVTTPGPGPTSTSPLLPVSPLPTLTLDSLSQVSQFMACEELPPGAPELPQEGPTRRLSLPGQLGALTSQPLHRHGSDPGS

Compound | hERG current change (%, negative = inhibition) at 10uM
COc1ccccc1NC(=O)c1ccc(-n2cccn2)nc1 | 3.91%
O=C(NC1CCCCC1)C(c1ccc(O)cc1)N(C(=O)c1cnccn1)c1cccc(F)c1 (stereo not drawn) | 0.986%
CCc1cc(=O)oc2cc3occ(-c4ccc(OC)c(F)c4)c3cc12 | 2%
CC(NC(N)=O)C(=O)OCC(=O)c1ccc(-c2ccccc2)cc1 (stereo not drawn) | 10.8%
C=CCNC(=S)N1CCN(CCN=CC2=C(O)CC(c3cccs3)CC2=O)CC1 (stereo not drawn) | -49.1%
Cc1occc1C(=O)O/N=C(\N)c1ccccc1 | 10.2%
CC(=O)c1ccc(OCc2cc(C(=O)NC(C)c3cnn(C)c3)no2)cc1 (stereo not drawn) | -0.438%
COc1ccccc1N1C(=O)NC(=O)/C(=C/c2ccc([N+](=O)[O-])s2)C1=O | 14.5%
CN(Cc1nccn1C)C(=O)c1ccc2nc(Cc3ccccc3F)oc2c1 | -6.92%
COc1ccc(-c2ccc(NS(=O)(=O)c3ccc([N+](=O)[O-])cc3)cc2)nn1 | -10.9%
CCOC(=O)c1ccc(-n2c(=O)[nH]c3ccccc3c2=O)cc1 | 8.24%
COCCn1c(SCC(=O)Nc2cc(C)cc(C)c2)nnc1C(C)C | -8.18%
O=C1CC(c2ccccc2)CC(O)=C1C=Nc1cccc(Cl)c1 (stereo not drawn) | 1.88%
CC(C)CNS(=O)(=O)c1ccc(C(=O)Nc2ccc3c(c2)OCO3)cc1 | -4.52%
Cc1cccc(NC(=O)CCCN2C(=O)C(c3ccccc3)Oc3cccnc32)c1C (stereo not drawn) | 15.8%
CC(C)CCNC(=S)NC1CCCC1 | 11%
COc1ccccc1OCCCCNC(C)(C)C | -5.44%
O=c1c2ccccc2nc(-c2ccc(Cl)cc2Cl)n1O | -4.8%
O=c1[nH]c2cccnc2n(CCNc2ncc(C(F)(F)F)cc2Cl)c1=O | -12.1%
COc1ccc(Cc2nnc(SCC(=O)NCCc3ccccc3)o2)cc1 | -7.79%
COc1cccc(/C=N/NC(=O)c2ccoc2C)c1 | 7.5%

Compound | hERG current change (%, negative = inhibition) at 10uM
O=C(Oc1ccc(Br)cc1C(=S)N1CCCC1)c1ccccc1Cl | 14.7%
COc1ccc(/C(C)=N/NC(=O)Cc2c(C)nc(C)[nH]c2=O)cc1 | -0.148%
Cc1ccc(-c2nc3ncccc3n2O)cc1 | 12.2%
Cc1ccccc1N1CCN(Cc2c[nH]c3ccccc23)CC1 | -62.1%
COc1cc(C(=O)N[C@@H](Cc2c[nH]c3ccccc23)C(=O)O)cc(OC)c1OC | -53.1%
COc1ccc(S(=O)(=O)NCc2cccnc2)cc1C(=O)N1CCCCC1 | 10.5%
COc1ccc(NS(=O)(=O)c2cccc(C(=O)NCc3ccccc3CN3CCCC3)c2)cc1 | -64.4%
Cc1cn(C2OC[C@@H](O)[C@@H]2CO)c(=O)[nH]c1=O (stereo partly drawn) | 12.3%
CCOC(=O)c1cccc(Nc2ncnc3ccc(C)cc23)c1 | -59.3%
O=C(O)CNC(=O)c1nc(-c2ccccc2)n(-c2ccccc2)n1 | 22.9%
O=C(NCc1ccc(F)cc1)C1C2C=CC3(CN(Cc4cccnc4)C(=O)C13)O2 (stereo not drawn) | 3.59%
CCc1ccc(NC(=O)[C@H](C)NC(=O)C2CCN(C(=O)[C@@H](N)CC(C)C)CC2)cc1.Cl | 11%
CSc1cccc(NC(=O)Nc2ccc(Cl)cc2)c1 | -11%
O=C(COc1ccc(S(=O)(=O)N2CCOCC2)cc1Cl)NCc1ccccn1 | 7.96%
C#CCOCCOCCOCCNc1nc(N2CCN(C(=O)CCCCCCCCCCNC(=O)[C@@H](CCC(=O)O)n3cc(CCCCCN)nn3)CC2)nc(N2CCN(C(=O)CCCCCCCCCCNC(=O)[C@@H](CCC(=O)O)n3cc(CCCCCN)nn3)CC2)n1 | -9.3%
Nc1nc2ccc([N+](=O)[O-])c(N)c2s1 | -21%
O=C(O)c1cn2c3c(ccc(Cl)c3c1=O)OCC2 | 10.9%
O=C(Cc1cccc2ccccc12)Nc1ccccc1Br | 18.9%
CNS(=O)(=O)c1cccc(C(=O)NCC2CCCCC2)c1 | 20.4%
Cc1cc(=O)oc2cc(OCC(=O)N3CCN(c4ccccc4)CC3)c(Cl)cc12 | 16.6%
COc1ccc(C2NC(=O)NC(C)=C2[N+](=O)[O-])cc1OC (stereo not drawn) | -5.73%

Compound | hERG current change (%, negative = inhibition) at 10uM
Cc1ccc(CCCNC(=O)C2CCC(=O)N(Cc3cccc(F)c3)C2)cc1 (stereo not drawn) | -53.4%
COc1ccc([C@H]2CC(=O)C=C(c3ccc(C)cc3)C2)cc1 | 7.22%
Cc1cc(NS(=O)(=O)c2ccc(NC(=O)Nc3cccc(C(F)(F)F)c3)cc2)no1 | 17.3%
O=C(Cc1cc(C(=O)O)c2ccccc2n1)Nc1ccccc1 | 28.6%
COc1ccc2ccccc2c1CN1CCN(C)CC1 | -8.69%
CN(C)c1ccc(NC(=O)CN2C(=O)CC(c3ccccc3)=Nc3ccccc32)cc1 | 5.99%
Cc1ccc(S(=O)(=O)Nc2ccc(Br)cc2/C=N/n2cnnc2)cc1 | -4.21%
O=C(CC1C(=O)NCCN1Cc1cccc(Oc2ccccc2)c1)NCCc1ccncc1 (stereo not drawn) | -22.1%
O=C1CCCC2C3CCCN4CCCC(CN12)C34 (stereo not drawn) | 16.3%
CCOc1ccc(NC(=O)N[C@@H](Cc2ccccc2)C(=O)O)cc1 | 22.6%
Cc1ccc2[nH]c(CSc3ccccc3)cc(=O)c2c1 | 14.2%
O=C(O)C(=O)O.OC(CNCCc1ccc(C(F)(F)F)cc1)COC(c1ccccc1)c1ccccc1 (stereo not drawn) | -34.7%
Cc1ccc(N/C=C2\C(=O)N(c3ccc(F)cc3F)C(c3cccnc3)S2(=O)=O)cc1 (stereo not drawn) | 1.37%
CCOc1ccc(CCNC(=O)C2CCN(c3nn4c(=O)cc(C)nc4s3)CC2)cc1OCC | -8.23%
Cc1ccc(-n2nc3c(c2NC(=O)c2cccs2)CS(=O)(=O)C3)cc1C | -47.7%
CN(Cc1cn(C)nc1-c1ccc(Oc2ccccc2)cc1)Cc1cnc2ccccn12 | -54%
CC(=O)Nc1ccc(NC(=O)C(C)OC(=O)CNC(=O)c2cccs2)cc1 (stereo not drawn) | 15.3%
O=C(/C=C/c1ccc(S(=O)(=O)NCc2ccco2)cc1)N1CCN(c2ccccc2)CC1 | 7.23%
CCOc1ccc(CCNC(=O)COC(=O)C2=NNC(=O)CC2)cc1OCC | 2.49%
Cn1cccc1C(=S)N=P(C1CCCCC1)(N1CCOCC1)N1CCOCC1 | -0.0981%
O=c1c2ccccc2n2c(-c3ccc(F)cc3)nnc2n1Cc1ccccc1 | -2.47%

Compound | hERG current change (%, negative = inhibition) at 10uM
Cc1cc(=O)[nH]c(CN2CCC(c3ccccc3)CC2)n1 | 4.66%
CC(=O)Nc1ccc(S(=O)(=O)NC(CC(=O)N(C)Cc2ccccc2)C(C)C)cc1 (stereo not drawn) | 15.2%
COc1ccccc1NC(=O)c1ccc(NC(=O)CN2CCN(C(=O)c3ccco3)CC2)cc1 | -72.9%
O=C(c1ccco1)N1CCN(Cc2cccc(C(F)(F)F)c2)CC1 | -5.15%
Cc1nnc(SCC(=O)NCc2ccco2)n1Cc1ccccc1 | 3.79%
COc1ccccc1-c1ccc(SCC(=O)Nc2cc(C)on2)nn1 | -17.6%
COc1ccccc1Oc1ccc(N/C=C/C(=O)C(C)(C)C)cc1 | 6.81%
CCCCN(CC)S(=O)(=O)c1ccc(C(=O)Nc2nnc(-c3ccccc3Cl)o2)cc1 | 8.39%
O=c1c2ccccc2c(-c2ccccc2)nn1-c1cc(Cl)cc(Cl)c1 | 9.33%
CS(=O)(=O)N(CC(=O)Nc1cccc([N+](=O)[O-])c1)c1ccccc1 | 7.7%
Cc1ccc(C(=O)Nc2ccc(CC(=O)O)cc2)o1 | -11.6%
CN(C)Cc1c(C(=O)N/N=C/c2cccc3ccccc23)nnn1-c1nonc1N | -2.53%
Cc1cc(C(=O)CSc2nc(N)cc(N)n2)c(C)n1-c1cccc(C(F)(F)F)c1 | -64.4%
Cc1ccc(O)c(NC(=O)C2CCCCC2)c1 | 10.5%
NC(=O)[C@H]1CC2(CC(c3cccc(NC(=O)[C@H]4CCC(=O)N4)c3)=NO2)CN1C(=O)c1cc([N+](=O)[O-])cc([N+](=O)[O-])c1 (stereo partly drawn) | -3.7%
O=C(CS(=O)CC(=O)N(c1ccccc1)C(C(=O)NC1CCCC1)c1cccs1)Nc1ccc(F)cc1 (stereo not drawn) | -3.4%
CCCCSc1nc(C)cc(NC(=S)Nc2ccc(OC)cc2)n1 | -25.4%
C=CCn1c(SCc2ccc(C(=O)NCCO)cc2)nc2sc(C)c(C)c2c1=O | -61.6%
S=c1[nH]nc(-c2cc(-c3ccccn3)nc3ccccc23)o1 | 12.9%
CC(NC(=O)c1ccc(CS(=O)(=O)Cc2ccccc2F)o1)c1ccc2c(c1)OCCO2 (stereo not drawn) | -43.3%
CCC(CC)C(=O)Nc1c2c(nn1-c1ccc(OC)cc1)CS(=O)C2 (stereo not drawn) | 3.83%

From publication PMC4336329 (PLoS ONE, 2015)
